For 4 molecules, binding results are on record in paper PMC10112805.

Protein sequences, listed by entry. Tags and fused reporters are not part of them.
UniProt Q86WV6: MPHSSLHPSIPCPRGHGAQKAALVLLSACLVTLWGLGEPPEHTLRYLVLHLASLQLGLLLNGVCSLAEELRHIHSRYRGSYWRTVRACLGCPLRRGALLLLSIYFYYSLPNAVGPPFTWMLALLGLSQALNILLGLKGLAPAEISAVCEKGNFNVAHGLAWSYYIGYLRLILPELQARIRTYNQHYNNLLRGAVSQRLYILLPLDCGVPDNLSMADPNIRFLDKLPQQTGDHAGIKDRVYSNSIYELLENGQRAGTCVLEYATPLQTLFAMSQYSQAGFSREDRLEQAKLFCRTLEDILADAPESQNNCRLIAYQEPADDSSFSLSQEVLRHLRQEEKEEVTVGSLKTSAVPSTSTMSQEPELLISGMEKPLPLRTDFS

Results are given in words; binding and its absence hold for the method and conditions named. In cells and extracts the contact can be indirect. Some entries that bind do so weakly or less than the wild type. For some of these results: Where a sequence is shown, tags or fusion partners need not be part of it.

The target of experiment [1] is STING-MYC (stimulator-of-interferon gene with a MYC tag) (UniProt Q86WV6). As to the kind of experiment: co-IP; HEK 293T cells co-transfected with the tagged plasmids; lysed in IP lysis buffer (50 mM Tris-HCl pH 7.4, 50 mM EDTA, 150 mM NaCl, 1% NP-40); immunoprecipitation with anti-MYC, anti-GFP or anti-HA and Protein A/G PLUS-Agarose overnight at 4 °C; five washes; immunoblot. In general terms: In western blotting, separated proteins are transferred to a membrane and probed.

Experiment [2] concerns the target T1, STING, endogenous in mouse primary peritoneal macrophages (mouse (endogenous in primary peritoneal macrophages)) (UniProt Q3TBT3).
T1 sequence: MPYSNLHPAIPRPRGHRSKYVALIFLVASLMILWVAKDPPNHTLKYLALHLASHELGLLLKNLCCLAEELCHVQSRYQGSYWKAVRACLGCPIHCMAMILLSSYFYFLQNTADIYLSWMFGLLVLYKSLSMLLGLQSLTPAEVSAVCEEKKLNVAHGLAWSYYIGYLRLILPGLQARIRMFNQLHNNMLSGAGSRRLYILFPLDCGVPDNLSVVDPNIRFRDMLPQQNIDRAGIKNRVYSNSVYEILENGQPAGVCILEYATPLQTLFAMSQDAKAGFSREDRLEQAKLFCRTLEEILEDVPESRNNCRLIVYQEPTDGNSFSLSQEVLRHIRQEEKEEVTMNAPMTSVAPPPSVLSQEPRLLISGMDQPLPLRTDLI
The experiment can be described thus: co-IP; endogenous proteins in mouse primary peritoneal macrophages stimulated with cGAMP; immunoprecipitation with a STING-specific antibody; IP lysis buffer (50 mM Tris-HCl pH 7.4, 50 mM EDTA, 150 mM NaCl, 1% NP-40); immunoblot.

For experiment [3], the target named is STING-HA (stimulator-of-interferon gene with an HA tag) (UniProt Q86WV6). The experiment can be described thus: co-IP; HEK 293T cells co-transfected with the tagged plasmids; lysed in IP lysis buffer (50 mM Tris-HCl pH 7.4, 50 mM EDTA, 150 mM NaCl, 1% NP-40); immunoprecipitation with anti-MYC, anti-GFP or anti-HA and Protein A/G PLUS-Agarose overnight at 4 °C; five washes; immunoblot.

B1: SELENOK-GFP (selenoprotein K with a GFP tag) (protein, UniProt Q9Y6D0 1-94)
chain: MVYISNGQVLDSRSQSPWRLSLITDFFWGIAEFVVLFFKTLLQQDVKKRRSYGNSSDSRYDDGRGPPGNPPRRMGRINHLRGPSPPPMAGGUGR
In the case of B1, the binding result in experiment [1] is “binds”.

B2: SELENOK, endogenous in mouse primary peritoneal macrophages (protein, UniProt Q9JLJ1 1-94)
chain: MVYISNGQVLDSRNQSPWRVSFLTDFFWGIAEFVVFFFKTLLQQDVKKRRGYGSSSDSRYDDGRGPPGNPPRRMGRISHLRGPSPPPMAGGUGR
Take B2: in experiment [2], the binding result is “binds”.

B3: SELENOK-GFP C43 (C-terminal half of SELENOK, 43-94) (domain or fragment, UniProt Q9Y6D0 43-94)
chain: QQDVKKRRSYGNSSDSRYDDGRGPPGNPPRRMGRINHLRGPSPPPMAGGUGR
B3: the binding result in experiment [3] is “no binding”.

Consider MVYISNGQVLDSRSQSPWRLSLITDFFWGIAEFVVLFFKTLL (domain or fragment, UniProt Q9Y6D0 1-42) [SELENOK-GFP N42 (N-terminal half of SELENOK, 1-42)], for which, in experiment [3], the binding entry was “binds”.
